Hit rate of the full screen: of about 410,000 compounds, about 530 (0.13%) were called active. Inconclusive means that the source gave no clear call. Such entries were picked first, then a sample of the others. Calls follow the shape of the dose curve; as a rule, active = well fitted inhibition curve with a large enough effect; inconclusive = small, poorly fitted or top-dose-only effect, or another doubt; inactive = no such curve, though single readings can be large or run the other way. A potency beside an inconclusive call is a rough fit, not a confirmed value.
Assay: qHTS of GLP-1 Receptor Inverse Agonists: Cytotox Screen
Conditions: HEK293 cAMP-luciferase reporter cells, luminescence, 24 h; activity change, negative = inhibition: at 38.3 µM (top of the series) unless noted
Summary of the method: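 1536-well qHTS counterscreen of the MLSMR; 200 cells/uL, 12 h pre-incubation, 23 nL cpd, 24 h at 37 deg C 5% CO2, luciferase detection reagent, 12 min RT, luminescence. Inhibition = undesired.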
% is scaled to controls: 0 for no effect and ±100 for the full control effect; potency is read from the fitted curve at half-maximal effect.

| Structure (SMILES) | Potency | activity change, negative = inhibition |
| --- | --- | --- |
| CC(C)Cn1c(O)c(/C=C2\C=NN=C2c2ccccc2)sc1=S | inconclusive: 22.4 µM [inhibitor, single point] |  |
| CCn1nc(NC(=O)CC(C)C)c2cc3cccc(C)c3nc21 |  | inactive: 34.8% |
| CCOC(=O)C1CCCN(c2nc(C)nc3c2oc2ccccc23)C1 (configuration not stated) |  | inactive: -16.4% |
| COc1cccc(NC(=O)NCc2ccc3c(c2)CCN3C(=O)c2ccccc2)c1 |  | inactive: -11.5% |
| O=C(NNC(=O)c1ncc(Cl)c(Cl)c1Cl)c1ccc(F)cc1 | inconclusive: 28.2 µM [inhibitor, single point] |  |
| COc1ccc(/C=C/CN2CCC(C(=O)NC(c3ccc(F)cc3)c3ccc4ccccc4n3)CC2)cc1 (configuration not stated) | inconclusive: 28.2 µM [inhibitor, single point] |  |
| O=C(NC1CCCC1)C(C1CC1)n1c(-c2ccccn2)nc2ccccc21 (configuration not stated) |  | inactive: 1.33% |
| CCc1cccc(C)c1NC(=O)COC(=O)c1cc([N+](=O)[O-])ccc1N1CCOCC1 | inconclusive: 12.6 µM [inhibitor, single point] |  |
| CCc1ccccc1Nc1nn2c(=O)c3ccc(C(=O)NCc4cccs4)cc3nc2s1 | inconclusive: 1.41 µM [inhibitor, partial curve, poor fit] |  |
| COc1ccc(N2CCN(c3nc(Cl)nc(Nc4ccc(F)cc4)n3)CC2)cc1 | inconclusive: 15.8 µM [inhibitor, single point] |  |
| Cc1ccc(S(=O)(=O)N/N=C/c2ccc(OCC(=O)N3CCOCC3)cc2)cc1 |  | inactive: -3.51% |
| O=C(CN1CCC(N2CCCCC2)CC1)N1CCCc2ccccc21 |  | inactive: -5.02% |
| COc1ccc(Cn2c(C(=O)O)c(CNCc3cccs3)c3ccc(C)cc32)cc1 | inconclusive: 22.4 µM [inhibitor, single point] |  |
| CC(/C=N/Nc1nnc(C)c(=O)[nH]1)=C\c1ccccc1 |  | inactive: -6.8% |
| Cc1ccc(C(=O)Nc2nc(-c3ccccn3)cs2)s1 | inconclusive: 2 µM [inhibitor, full curve, poor fit] |  |
| O=C(CSc1cccc[n+]1[O-])CSc1cccc[n+]1[O-] | inconclusive: 0.891 µM [inhibitor, full curve, poor fit] |  |
| Cc1cccc(Cn2ncc(Cl)c(Cl)c2=O)c1 | inconclusive: 14.1 µM [inhibitor, single point] |  |
| CCCNC(=O)CCn1nc(-c2ccc(Cl)cc2)c2ccccc2c1=O | inconclusive: 11.2 µM [inhibitor, single point] |  |
| CCOC(=O)c1cc2cc(OC)ccc2[nH]1 |  | inactive: -8.82% |
| O=C(NCC1CCCO1)C(c1ccc(F)cc1)N(C(=O)Cn1nnc(-c2ccc(F)cc2)n1)c1cccc(O)c1 (configuration not stated) | inconclusive: 7.08 µM [inhibitor, partial curve, poor fit] |  |
| CCCCCC(=O)N1CC2(CC(c3cccc(NC(=O)[C@@H]4CCC(=O)N4)c3)=NO2)C[C@@H]1C(N)=O (some centres not stated) | inconclusive: 4.47 µM [inhibitor, full curve, poor fit] |  |

| Structure (SMILES) | Potency | activity change, negative = inhibition |
| --- | --- | --- |
| COc1ccc(CCN(C)CC(O)COC(c2ccc(F)cc2)c2ccc(F)cc2)cc1OC (configuration not stated) | inconclusive: 28.2 µM [inhibitor, single point] |  |
| CC(=O)Nc1nonc1NC(=O)CSc1nc2ccccc2o1 | inconclusive: 31.6 µM [inhibitor, single point] |  |
| Cc1ccc(Nc2c([N+](=O)[O-])c(=O)oc3ccccc23)cc1 | inconclusive: 22.4 µM [inhibitor, single point] |  |
| CN1/C(=C\C=C2/SC(=S)NC2=O)C(C)(C)c2ccccc21 | inconclusive: 10 µM [inhibitor, partial curve, poor fit] |  |
| CC(C)c1nc(SCC(=O)Nc2cccc(C(F)(F)F)c2)c2c(=O)n(C)c(=O)n(C)c2n1 | inconclusive: 10 µM [inhibitor, partial curve, poor fit] |  |
| CCOc1ccc(N=Nc2c(N)[nH][nH]c2=O)cc1 | inconclusive: 11.2 µM [inhibitor, partial curve, poor fit] |  |
| CCCC(=O)N1CCC1(C)C(=O)Nc1ccc(-n2cccc2)cc1 (configuration not stated) |  | inactive: -5.08% |
| CN1C/C(=C/c2ccsc2)C(=O)/C(=C/c2ccsc2)C1 | inconclusive: 8.91 µM [inhibitor, single point] |  |
| O=C1C2CCCCN2C(=O)N1CCCN1CCN(c2cccc(C(F)(F)F)c2)CC1 (configuration not stated) |  | inactive: -17.5% |
| CCN(CC)C(=O)c1sc(NC(=O)c2ccc(Br)o2)c(C(=O)OC)c1C | inconclusive: 0.501 µM [inhibitor, partial curve, poor fit] |  |
| O=C(Nc1cc(S(=O)(=O)N2CCCCC2)ccc1N1CCOCC1)c1ccc(C(F)(F)F)cc1 |  | inactive: 3.97% |
| CCOc1cc(S(=O)(=O)NCCc2cccc(C)c2)c(OCC)cc1-n1cnnn1 | inconclusive: 31.6 µM [inhibitor, partial curve, poor fit] |  |
| CC(=O)c1ccc(C(=O)N(CCCN(C)C)c2nc3c(C)c(C)ccc3s2)cc1 |  | inactive: -8.46% |
| CC(C)N(c1ccccc1)c1ccc(NC(=O)CCl)cc1 | inconclusive: 10 µM [inhibitor, partial curve, poor fit] |  |
| CCN(CC)CCNC(=O)c1ccc(NC(=O)c2cccc(S(=O)(=O)N3c4ccccc4CC3C)c2)cc1 (configuration not stated) | inconclusive: 25.1 µM [inhibitor, single point] |  |
| COC(=O)CN(C#N)c1nc(OC)nc(N(C)C)n1 | inconclusive: 22.4 µM [inhibitor, single point] |  |
| CN(Cc1ccccn1)C(=O)C1CCC(=O)N(Cc2cccc(C(F)(F)F)c2)C1 (configuration not stated) | inconclusive: 28.2 µM [inhibitor, single point] |  |
| Fc1ccc(NC(=S)N/N=C/c2ccc(F)c(F)c2)c(F)c1 | inconclusive: 3.16 µM [inhibitor, full curve, poor fit] |  |
| Cc1cc(NC(=O)CSc2nc(C(C)C)nc3sc4c(c23)CCCC4)no1 | inconclusive: 5.62 µM [inhibitor, full curve, poor fit] |  |
| COc1ccc(C)cc1-n1nnnc1SC(C)C(=O)NC1CCCC1 (configuration not stated) | inconclusive: 3.16 µM [inhibitor, full curve, poor fit] |  |
| COc1ccc(C(=O)NNC(=O)c2cc3cccc(OC)c3oc2=O)cc1 |  | inactive: 3.89% [at 7.66 µM] |

From PubChem BioAssay AID624418 (National Center for Advancing Translational Sciences (NCATS), 2012)
